According to the supplement of paper PMC4967469:
A lower IC50 marks a more sensitive line; fits outside the tested doses are given as limits. The AUC spans the tested range (256-fold, ending at the top dose) of the same fit; the more sensitive the line, the further below 1. For part of these data: Where the top dose is marked as inferred, it comes from the curve model; the source does not state it.

Tests used:
Test in all cases: Viability of human cancer cell lines after 72 h of drug (GDSC screen)
Obatoclax mesylate = compound: COC1=CC(c2cc3ccccc3[nH]2)=N/C1=C\c1[nH]c(C)cc1C [Obatoclax mesylate]; details: top dose 16 µM
Procedure: (§1)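 Human cancer cell lines in 384-well plates, medium with 10% serum, drug for 72 h over a 256-fold dose range (nine 2-fold or five 4-fold steps up to the top dose). Adherent lines were fixed and stained with the nucleic acid dye Syto60, suspension lines read with resazurin; signal relative to control wells, capped at 0 and 100%. One two-parameter sigmoid per drug and line, fitted in a mixed model over all curves with the slope shared within a line.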

CP724714 = compound: COCC(=O)NC/C=C/c1ccc2ncnc(Nc3ccc(Oc4ccc(C)nc4)c(C)c3)c2c1 [CP724714]; details: top dose 10.24 µM; top dose inferred
Procedure: as §1

Paclitaxel = compound: CC(=O)O[C@H]1C(=O)[C@@]2(C)[C@H]([C@H](OC(=O)c3ccccc3)[C@]3(O)C[C@H](OC(=O)[C@H](O)[C@@H](NC(=O)c4ccccc4)c4ccccc4)C(C)=C1C3(C)C)[C@]1(OC(C)=O)CO[C@@H]1C[C@@H]2O [Paclitaxel]; details: top dose 0.1024 µM
Procedure: as §1

STF-62247 = compound: Cc1cccc(Nc2nc(-c3ccncc3)cs2)c1 [STF-62247]; details: top dose 10.24 µM; top dose inferred
Procedure: as §1

CX-5461 = compound: Cc1cnc(CNC(=O)c2c(=O)c3ccc(N4CCCN(C)CC4)nc3n3c2sc2ccccc23)cn1 [CX-5461]; details: top dose 10.24 µM; top dose inferred
Procedure: as §1

Nutlin-3a = compound: COc1ccc(C2=N[C@@H](c3ccc(Cl)cc3)[C@@H](c3ccc(Cl)cc3)N2C(=O)N2CCNC(=O)C2)c(OC(C)C)c1 [Nutlin-3a]
Procedure: as §1

| Cell Line | AUC (Nutlin-3a) | IC50 (Nutlin-3a) | other results |
| --- | --- | --- | --- |
| A704 (kidney, adherent) | – | – | AUC (Obatoclax mesylate): 0.18; IC50 (Obatoclax mesylate): 0.114 µM; AUC (CP724714): 0.989; IC50 (CP724714): > 10.2 µM; AUC (Paclitaxel): 0.955; IC50 (Paclitaxel): > 0.102 µM |
| AM-38 (glioma, semi-adherent) | – | – | AUC (STF-62247): 0.973; IC50 (STF-62247): > 10.2 µM; AUC (CX-5461): 0.328; IC50 (CX-5461): 0.21 µM; AUC (Obatoclax mesylate): 0.194; IC50 (Obatoclax mesylate): 0.12 µM; AUC (CP724714): 0.941; IC50 (CP724714): > 10.2 µM; AUC (Paclitaxel): 0.988; IC50 (Paclitaxel): > 0.102 µM |
| COLO-668 (small cell lung carcinoma, adherent) | – | – | AUC (STF-62247): 0.989; IC50 (STF-62247): > 10.2 µM; AUC (CX-5461): 0.979; IC50 (CX-5461): > 10.2 µM; AUC (Obatoclax mesylate): 0.319; IC50 (Obatoclax mesylate): 0.312 µM; AUC (CP724714): 0.967; IC50 (CP724714): > 10.2 µM; AUC (Paclitaxel): 0.911; IC50 (Paclitaxel): > 0.102 µM |
| CP67-MEL (melanoma, adherent) | – | – | AUC (Paclitaxel): 0.809; IC50 (Paclitaxel): > 0.102 µM |
| DOHH-2 (B-cell lymphoma, suspension) | – | – | AUC (Obatoclax mesylate): 0.115; IC50 (Obatoclax mesylate): < 0.0625 µM; AUC (Paclitaxel): 0.534; IC50 (Paclitaxel): 0.00791 µM |
| EJM (lymphoid neoplasm, semi-adherent) | – | – | AUC (STF-62247): 0.979; IC50 (STF-62247): > 10.2 µM; AUC (CX-5461): 0.96; IC50 (CX-5461): > 10.2 µM; AUC (Obatoclax mesylate): 0.446; IC50 (Obatoclax mesylate): 0.732 µM; AUC (CP724714): 0.992; IC50 (CP724714): > 10.2 µM; AUC (Paclitaxel): 0.812; IC50 (Paclitaxel): 0.0444 µM |
| EW-16 (Ewing sarcoma, adherent) | – | – | AUC (STF-62247): 0.949; IC50 (STF-62247): > 10.2 µM; AUC (CX-5461): 0.855; IC50 (CX-5461): 8.74 µM; AUC (Obatoclax mesylate): 0.125; IC50 (Obatoclax mesylate): < 0.0625 µM; AUC (CP724714): 0.97; IC50 (CP724714): > 10.2 µM; AUC (Paclitaxel): 0.478; IC50 (Paclitaxel): 0.00557 µM |
| Farage (B-cell lymphoma, suspension) | – | – | AUC (STF-62247): 0.98; IC50 (STF-62247): > 10.2 µM; AUC (CX-5461): 0.879; IC50 (CX-5461): 7.31 µM; AUC (Obatoclax mesylate): 0.176; IC50 (Obatoclax mesylate): 0.136 µM; AUC (CP724714): 0.98; IC50 (CP724714): > 10.2 µM; AUC (Paclitaxel): 0.588; IC50 (Paclitaxel): 0.0106 µM |
| GAK (melanoma, adherent) | – | – | AUC (STF-62247): 0.972; IC50 (STF-62247): > 10.2 µM; AUC (CX-5461): 0.965; IC50 (CX-5461): > 10.2 µM; AUC (Obatoclax mesylate): 0.069; IC50 (Obatoclax mesylate): < 0.0625 µM; AUC (CP724714): 0.985; IC50 (CP724714): > 10.2 µM; AUC (Paclitaxel): 0.87; IC50 (Paclitaxel): 0.0879 µM |
| GRANTA-519 (B-cell lymphoma, suspension) | – | – | AUC (STF-62247): 0.989; IC50 (STF-62247): > 10.2 µM; AUC (CX-5461): 0.927; IC50 (CX-5461): > 10.2 µM; AUC (Obatoclax mesylate): 0.726; IC50 (Obatoclax mesylate): 4.06 µM; AUC (CP724714): 0.987; IC50 (CP724714): > 10.2 µM; AUC (Paclitaxel): 0.735; IC50 (Paclitaxel): 0.0276 µM |
| HCE-4 (oesophagus, adherent) | – | – | AUC (STF-62247): 0.992; IC50 (STF-62247): > 10.2 µM; AUC (CX-5461): 0.992; IC50 (CX-5461): > 10.2 µM; AUC (Obatoclax mesylate): 0.284; IC50 (Obatoclax mesylate): 0.272 µM; AUC (CP724714): 0.985; IC50 (CP724714): > 10.2 µM; AUC (Paclitaxel): 0.456; IC50 (Paclitaxel): 0.00494 µM |
| KP-N-RT-BM-1 (neuroblastoma, semi-adherent) | – | – | AUC (Paclitaxel): 0.848; IC50 (Paclitaxel): > 0.102 µM |
| KY821 (leukaemia, suspension) | – | – | AUC (STF-62247): 0.959; IC50 (STF-62247): > 10.2 µM; AUC (CX-5461): 0.934; IC50 (CX-5461): > 10.2 µM; AUC (CP724714): 0.988; IC50 (CP724714): > 10.2 µM; AUC (Paclitaxel): 0.752; IC50 (Paclitaxel): 0.0302 µM |
| MOLT-13 (T-cell lymphoblastic leukaemia, suspension) | – | – | AUC (STF-62247): 0.947; IC50 (STF-62247): > 10.2 µM; AUC (CX-5461): 0.885; IC50 (CX-5461): 8.8 µM; AUC (CP724714): 0.967; IC50 (CP724714): > 10.2 µM; AUC (Paclitaxel): 0.619; IC50 (Paclitaxel): 0.0131 µM |
| SiHa (cervix, adherent, top dose 8 µM) | 0.987 | > 8 µM | – |
| T47D (breast, adherent, top dose 8 µM) | 0.937 | > 8 µM | – |
| T84 (large intestine, adherent, top dose 8 µM) | 0.989 | > 8 µM | – |
| T98G (glioma, adherent, top dose 8 µM) | 0.978 | > 8 µM | – |
| T-T (oesophagus, adherent, top dose 8 µM) | 0.985 | > 8 µM | – |
| TC-71 (Ewing sarcoma, adherent, top dose 8 µM) | 0.992 | > 8 µM | – |
| TC-YIK (cervix, suspension, top dose 8 µM) | 0.991 | > 8 µM | – |
| TCCSUP (bladder, adherent, top dose 8 µM) | 0.971 | > 8 µM | – |
| TE-1 (oesophagus, adherent, top dose 8 µM) | 0.982 | > 8 µM | – |
| TE-4 (oesophagus, adherent, top dose 8 µM) | 0.986 | > 8 µM | – |
| TE-5 (oesophagus, adherent, top dose 8 µM) | 0.972 | > 8 µM | – |

| Cell Line | AUC (Nutlin-3a) | IC50 (Nutlin-3a) | other results |
| --- | --- | --- | --- |
| TE-6 (oesophagus, adherent, top dose 8 µM) | 0.973 | > 8 µM | – |
| TE-8 (oesophagus, adherent, top dose 8 µM) | 0.979 | > 8 µM | – |
| TE-9 (oesophagus, adherent, top dose 8 µM) | 0.98 | > 8 µM | – |
| TE-10 (oesophagus, adherent, top dose 8 µM) | 0.984 | > 8 µM | – |
| TE-11 (oesophagus, adherent, top dose 8 µM) | 0.962 | > 8 µM | – |
| TE-12 (oesophagus, suspension, top dose 8 µM) | 0.982 | > 8 µM | – |
| TE-15 (oesophagus, suspension, top dose 8 µM) | 0.978 | > 8 µM | – |
| TGBC1TKB (biliary tract, adherent, top dose 8 µM) | 0.986 | > 8 µM | – |
| TGBC11TKB (stomach, adherent, top dose 8 µM) | 0.992 | > 8 µM | – |
| TGW (neuroblastoma, adherent, top dose 8 µM) | 0.983 | > 8 µM | – |
| THP-1 (acute myeloid leukaemia, suspension, top dose 8 µM) | 0.991 | > 8 µM | – |
| TK10 (kidney, adherent, top dose 8 µM) | 0.967 | > 8 µM | – |
| TK (B-cell lymphoma, suspension, top dose 8 µM) | 0.99 | > 8 µM | – |
| TMK-1 (stomach, adherent, top dose 8 µM) | 0.986 | > 8 µM | – |
| TOV-21G (ovary, adherent, top dose 8 µM) | 0.719 | 2.22 µM | – |
| TOV-112D (ovary, adherent, top dose 8 µM) | 0.964 | > 8 µM | – |
| TT2609-C02 (thyroid, adherent, top dose 8 µM) | 0.969 | > 8 µM | – |
| TT (thyroid, adherent, top dose 4 µM) | 0.909 | > 4 µM | – |
| TUR (B-cell lymphoma, suspension, top dose 8 µM) | 0.983 | > 8 µM | – |
| TYK-nu (ovary, adherent, top dose 8 µM) | 0.975 | > 8 µM | – |
| U031 (kidney, adherent, top dose 4 µM) | 0.96 | > 4 µM | – |
| U-118-MG (glioma, adherent, top dose 8 µM) | 0.98 | > 8 µM | – |
| U-266 (myeloma, semi-adherent, top dose 8 µM) | 0.962 | > 8 µM | – |
| U-698-M (B-cell leukaemia, suspension, top dose 8 µM) | 0.962 | > 8 µM | – |
| UACC-62 (melanoma, adherent, top dose 8 µM) | 0.899 | > 8 µM | – |

| Cell Line | AUC (Nutlin-3a) | IC50 (Nutlin-3a) | other results |
| --- | --- | --- | --- |
| UACC-257 (melanoma, adherent, top dose 8 µM) | 0.879 | > 8 µM | – |
| UACC-893 (breast, adherent, top dose 4 µM) | 0.968 | > 4 µM | – |
| UWB1.289 (ovary, adherent, top dose 8 µM) | 0.975 | > 8 µM | – |
| VA-ES-BJ (soft tissue, adherent, top dose 8 µM) | 0.748 | 2.7 µM | – |
| VAL (B-cell lymphoma, suspension, top dose 8 µM) | 0.843 | 5.69 µM | – |
| VCaP (prostate, adherent, top dose 8 µM) | 0.985 | > 8 µM | – |
| VM-CUB-1 (bladder, adherent, top dose 4 µM) | 0.938 | > 4 µM | – |
| VMRC-LCD (lung adenocarcinoma, adherent, top dose 8 µM) | 0.993 | > 8 µM | – |
| VMRC-RCZ (kidney, adherent, top dose 8 µM) | 0.977 | > 8 µM | – |
| WIL2-NS (lymphoid neoplasm, suspension, top dose 8 µM) | 0.984 | > 8 µM | – |
| WM35 (melanoma, adherent, top dose 8 µM) | 0.742 | 2.49 µM | – |
| WM793B (melanoma, adherent, top dose 8 µM) | 0.807 | 4.64 µM | – |
| WM1552C (melanoma, adherent, top dose 8 µM) | 0.934 | > 8 µM | – |
| WM-115 (melanoma, adherent, top dose 8 µM) | 0.813 | 5.58 µM | – |
| WSU-DLCL2 (B-cell lymphoma, suspension, top dose 8 µM) | 0.99 | > 8 µM | – |
| WSU-NHL (lymphoid neoplasm, suspension, top dose 8 µM) | 0.96 | > 8 µM | – |
| YAPC (pancreas, adherent, top dose 8 µM) | 0.982 | > 8 µM | – |
| YH-13 (glioma, adherent, top dose 8 µM) | 0.971 | > 8 µM | – |
| YKG-1 (glioma, adherent, top dose 8 µM) | 0.97 | > 8 µM | – |
| YT (lymphoid neoplasm, suspension, top dose 8 µM) | 0.866 | 5.42 µM | – |
| ZR-75-30 (breast, adherent, top dose 8 µM) | 0.977 | > 8 µM | – |
| huH-1 (liver, adherent, top dose 8 µM) | 0.977 | > 8 µM | – |
| no-11 (glioma, adherent, top dose 8 µM) | 0.979 | > 8 µM | – |
